In PMC12136788:
This is one part of the list.

T1: UNK ZnF1-3 (human, UniProt Q9C0B0 31-174)
T1 sequence: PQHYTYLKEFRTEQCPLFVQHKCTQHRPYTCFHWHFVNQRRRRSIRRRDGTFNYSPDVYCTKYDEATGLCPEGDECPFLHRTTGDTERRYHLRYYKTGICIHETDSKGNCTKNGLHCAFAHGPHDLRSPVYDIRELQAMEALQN

B1: chr2:155211079:155211080:+_ENSMUSG00000038375_ENSMUST00000043237|mus_hu|motif|central (ssRNA)
RNA: GGGAGUUCUACAGUCCGACGAUCGAGGCUGGAGAGGCGCUGGAACAUGGUGGGGGGCGAAGCGCCUCACGGGGGCGCCCGGUGGCAGUGCAAAAACCUCUCUGUGAUCCAAACAGCUGGGAGGCAGCGAUUUUAUUGGACUCUCAACAGAGGAUUGAGCAUCA
B2: 8912445_8912565_612_3pUTR_ENSMUSG00000071658_ENSMUST00000096259|mouse|control|control (ssRNA)
RNA: GGGAGUUCUACAGUCCGACGAUCUAUAGAUAGAGUAGAAGGUGCUUGGAGUUAGCCUGAAAGGGUGAGGAGAUGGGGUAGACAUGGGUAAGGAGGGCCUUGUGCUUCAAAUAAUCUCCGGGUAAAUGCGGGUAGAAGUGAUCUCAACAGAGGAUUGAGCAUCA
B3: chr15:38448722:38448723:-_ENSMUSG00000037458_ENSMUST00000152833|mus_hu|FALSE|FALSE (ssRNA)
RNA: GGGAGUUCUACAGUCCGACGAUCAGAUAACGGCCCAAAGAGUCGGGUAAAGCGUCUUCUCUUUUUCGGCGGAAUUUUUAAAGAGGGAUGUGGUUACCUUGAGCAGAAAUACCCAAGGCGGCCUGGGCCAUAGGCUGCGGGAACCAACAGAGGAUUGAGCAUCA
B4: chr15:76588000:76588001:-_ENSG00000140374_ENST00000560595|hu_hu|motif|central (ssRNA)
RNA: GGGAGUUCUACAGUCCGACGAUCGGACACUUCACCUCCAAGGCGUGUGGCUGCAGUAAUGGUAUUUAAAGUAAUGGGUGCGGGGGAAUCAUUUGCAUGCUCAGCUAUUACCAGGGUACUCUGAAAUCGUAGCAAUGAGGCCGCCAACAGAGGAUUGAGCAUCA
B5: chr1:58468927:58468928:-_ENSMUSG00000026034_ENSMUST00000148330|mus_mus|mus_mus_mus_hu_False|1_1 (ssRNA)
RNA: GGGAGUUCUACAGUCCGACGAUCAAUUACUGAAAAAGAUGUUCAUUACCUUAGCUAUGUACUUAAUGAACCAAAUUACCCAAACAAAAUAAACAUGGCAAUAUAAAAAUGUUAAGAAUUUACAAAGCUGUACAAAAAGACUGACAACAGAGGAUUGAGCAUCA
B6: chr14:102368134:102368135:+_ENSG00000078304_ENST00000445439|hu_hu|hu_hu_hu_mus_True|68_108 (ssRNA)
RNA: GGGAGUUCUACAGUCCGACGAUCAAGGGGUUCCAUGAUCUUCACAAACUCUGAUGGUUCAAUUACAUCUAAAAUCUCUUCUAAUUCAUUUAAGAACAUUACUUCUUUUGGACUGUGAGUCUUUGGCCAGUAUUUGAGAAGUGCCAACAGAGGAUUGAGCAUCA
B7: chr6:50807893:50807894:+_ENSG00000008196_ENST00000393655|hu_mus|FALSE|FALSE (ssRNA)
RNA: GGGAGUUCUACAGUCCGACGAUCCUCGGACACGGCUUUAGCAGGAAACUCUGUUUCACAAAUAUACCCGAAAUCCCGAGCUAAGUGAACAGCUUCCCCUUCUACCAGUGAGGUGAGUAACGUGACAUUUGCUGCUUUGCGCCUCAACAGAGGAUUGAGCAUCA
B8: chr17:45747064:45747065:+_ENSG00000108424_ENST00000290158|hu_hu|hu_hu_hu_mus_True|28_28 (ssRNA)
RNA: GGGAGUUCUACAGUCCGACGAUCGCCCACAGUCCACGCUGUUGUGUCUCGAACAACUACACUGGGGUCUUUCAUUAGUUCUAUUAGGGUGGGCAUAGCCUGUAUGACUAGUGGUUUCAGUUGAUUAGGCUCUGGUCCUUCCAACAACAGAGGAUUGAGCAUCA
B9: 46695667_46696168_2944_3pUTR_ENSG00000069329_ENST00000568784|human|control|control (ssRNA)
RNA: GGGAGUUCUACAGUCCGACGAUCUCAGAAUUUCUAUAAAAAGCUGCACUUGUAGAGAGGGGUCCAUGCACUGAUUUGCUAUUUUUAGAGCUUUUUUUAGGCACUCCAUUACCCUCUUGCCUCCGUGAAGCUCCUCCCCAUUUUCAACAGAGGAUUGAGCAUCA
B10: chr9:59188957:59188958:-_ENSMUSG00000025235_ENSMUST00000026265|mus_mus|motif|central (ssRNA)
RNA: GGGAGUUCUACAGUCCGACGAUCGGCCACCUGCUUGAGAUUAUCAGCACACUGUGGGCUGAGAACAGCACAUGUCUGAAAGAGUUCGGGGGAUUCUUGGAUAUUUCCUUCCAGGCGAAAAAUCAGUGCUUGGACAUAGAUAGCCAACAGAGGAUUGAGCAUCA
B11: chr2:44571066:44571067:-_ENSG00000138078_ENST00000409411|hu_hu|FALSE|FALSE (ssRNA)
RNA: GGGAGUUCUACAGUCCGACGAUCAACUCUGAUACAAUCAAUGAAGGGCUGGUCUAACUUAAGUUCCUCCAAAUUGAAUAAAACUUCAUAAUUAUCAUUGUCUGCUUCUUCAUCUUUGGAACGAACCAAGCAACAACCUUCUUGCAACAGAGGAUUGAGCAUCA
B12: chr6:114281168:114281169:-_ENSG00000196591_ENST00000368632|hu_hu|hu_hu_hu_mus_True|18_38 (ssRNA)
RNA: GGGAGUUCUACAGUCCGACGAUCUUCCAUUUUUCGGUAUAAACCAUAAUUUAGCAGCAAGUUAUGAGUCAUCCGGAUUCUAUGAGGCUUCAUGGGAUGACCCUGUCCAUAAUAAUAAUUUCCAAUAUCACCAUCAUAGUAGUACAACAGAGGAUUGAGCAUCA
B13: chr3:47755950:47755951:-_ENSG00000173473_ENST00000254480|hu_mus|FALSE|FALSE (ssRNA)
RNA: GGGAGUUCUACAGUCCGACGAUCAACCUUCCAGGGCUUUUCUGGGAUUGGUGCAUCUUCAAUUUCAGCAUCAACAUCAUUACUGUGGACCCAAGUGUCAUAGCUGUCUGGGUAGAAACCCCAGUGCACCAGCACCUGCUUGUCCAACAGAGGAUUGAGCAUCA
B14: chr14:66974463:66974464:+_ENSMUSG00000022044_ENSMUST00000074523|mus_hu|mus_mus_mus_hu_False|1_18 (ssRNA)
RNA: GGGAGUUCUACAGUCCGACGAUCUUGUAGGACGACUUAUUCAGGGGAUCGGCCAGGAAGCAGGAGCAGAACAAGGACACCAGCGGGAGCUCCUUCAUCUUCUCUUUGUAGGCAGCAAGAGUCAUGUUUCUGGGAUCCUGGUGGCAACAGAGGAUUGAGCAUCA

Molecular target: T1, UNK ZnF1-3
Test: nsRBNS (natural sequence RNA bind-n-seq); RBNS binding buffer (assumed for nsRBNS): 25 mM Tris pH 7.5, 150 mM KCl, 3 mM MgCl2, 0.01% Triton X-100, 500 ug/ml BSA, 20 U/ml SUPERase-In, 4 C; UNK is unkempt and MSI1 is Musashi-1; names of the RNAs are library labels; protein concentration not given here; high values mean tight binding

Binder	binding signal
B1	1.28 enrichment R
B2	1.79 enrichment R
B3	1.08 enrichment R
B4	1.36 enrichment R
B5	1.59 enrichment R
B6	0.735 enrichment R
B7	0.683 enrichment R
B8	0.58 enrichment R
B9	0.807 enrichment R
B10	1.25 enrichment R
B11	0.693 enrichment R
B12	0.68 enrichment R
B13	0.983 enrichment R
B14	1.95 enrichment R
